The RNAGym collection of RNA variant scans (doi:10.7554/elife.90254)
Read counts are not given, so values of variants with three or more changes are uncertain.

B1: OR4K15 (parent)
chain: GUUAACGGUCAUAGGCCAUGGAAACUAGGAGCACCAUUUCGCUGCCAGUGAAGAAAUGAACAAAGAAAAUCUGGGCCAGGCAGGCAUCAAAAGAAAUAGUCUUGCGCUCAACCAGAAAGUCUGUAAUCAUUUUAAGGGUA

Variants of: B1
Test: self-cleavage, relative activity (ratio to wild type); higher = more cleavage; in vitro, sequencing; the parent is a self-cleaving ribozyme

Row | Variant | self-cleavage
1 | GUUAACGGUCAUAGGCCAUGGUAACUAGGAGCUCCAUUUCGCUGCCAGUGGAGAAAUGAACAAAGAAAAUCUGGGCCAGGCUGGCAUCAAAAGAAAUAGUCCUGCGCUCCACCAGAAAGUCUGUAAUCAUUUUAAGGGUA [A22U A33U A51G A82U U102C A110C] | 0.06
2 | GUUAACGGUCAUAGGCCAUGGGAACUAGGAGCACCAUUUCGCUGCCAGUGAAGAAAUGAACAAAGAAAAUCUGGGCCAGGCAGGCAUCAAAAGAAAUAGUCCCGCGCUCGACCAGAAAGUCUGUGAUCAUUUUAAGGGUA [A22G U102C U103C A110G A125G] | 0.01
3 | GUUAACGGUCAUAGGCCAUGGGAACUAGGAGCACCAUUUCGCUGCCAGUGAAGAAAUGAACAAAGAAAAUCUGGGCCAGGCAGGCAUCAAAAGAAACAGUCUUGCGCUCAACCAGGAAGUCUGUAAUCAUUUUAAGGGUA [A22G U97C A116G] | 0.18
4 | GUUAACGGUCAUAGGCCAUGGUAACUAGGAGCACCAUUUCGCUGCCAGUGAGGAAAUGAACAAAGAAAAUCUGGGCCAGGCGGGCAUCAAAAGAAAUAGUCUUGCGAUCAACCAGAAAGUCUGUAAUCAUUUUAAGGGUA [A22U A52G A82G C107A] | 0.04
5 | GUUAACGGUCAUAGGCCAUGGUAACUAGGAGCACCAUUUCGCUGCCAGUGAAGGAAUGAACAAAGUAAAUCUGGGCCAGGCAGGCAUCAAAAGAAAUAGUCUUGUGCCCAACCAGAAAGUCUGUAAUCAUUUUAAGGGUA [A22U A54G A66U C105U U108C] | 0.03
6 | GUUAACGGUCAUAGGCCAUGGUAACUAGGAGCACCAUUUCGCUGCCAGUGAAGAAGUGAACAAAGAAAAUCUGGGCCAGGCAGGCACCAAAAGAAAUAGUCUUGCGCUCAACCAGAAAGUCUGUAAUCAUUUUAAGGGUA [A22U A56G U87C] | 0.48
7 | GUUAACGGUCAUAGGCCAUGGGAACUAGGAGCACCAUUUCGCUGCCAGUGAAGAAAUGAACAAAGAAAAUCUGGGCCAGGCAGGCAUCAAAAGAAAUAGUCUUGCGCUCAACCAGAAAGUCUGUAAUCAUUCUAGGGGUA [A22G U132C A135G] | 0.59
8 | GUUAACGGUCAUAGGCCAUGGUGACUAGGAGCACCAUUUCGCAGCCAGUGAAGAAAUGAACAAAGAAAAUCUGGGCCAGGCUGGCAUCAAAAGAAAUAGUCUUGCGCUCAGCCAGAAAGUCUGUAAUCAUUUUAAGGGUA [A22U A23G U43A A82U A111G] | 0.05
9 | GUUAACGGUCAUAGGCCAUGGGAACUAGGAGCACCAUUUCGCUGCCAGUGAAGAAAUGAACAAAGAAAAUCUGGGCCAGGCAGGCAACAAAAGAGAUAGUCUUGCGCUCAACCAGAAAGUCUGUAAUCAUUUUAAGGGCA [A22G U87A A95G U139C] | 1.13
10 | GUUAACGGUCAUAGGCCAUGGUAACUAGGAGCACCAUUUCGCUGCCAGUGAGGAAAAGAACAAAGAAAAUCUGGGCCAGGCGGGCAUCAAAAGAAAUAGUCUUGCGCUCAACCAGAAAGGCUGUAGUCAUUUUAAGGGUA [A22U A52G U57A A82G U120G A126G] | 0.07
11 | GUUAACGGUCAUAGGCCAUGGUAACUAGGAGCACCAUUUCGCUGCCAGUGAAGAAGUGAACAAAGAAAAUCUGGGCCAGGCAGGCAUCAAAAGAAAUAGUCUUGCGCUCAACCAGAAAGUCUGUAAUCACUUUAAGGGUA [A22U A56G U130C] | 1.24
12 | GUUAACGGUCAUAGGCCAUGGGAACUAGGAGCACCAUUUCGCUGCCAGUGAAGAAAUGAACAAAGAAAACCUGGGCCAGGCAGGCAUCAAAAGGAAUAGUCUUGCGCUCAACCAGAAAGUCUGCAAUCAUUCUAAGGGUA [A22G U70C A94G U124C U132C] | 0.18
13 | GUUAACGGUCAUAGGCCAUGGUAACUAGGAGCACCAUUUCGCUGCCAGUGAUGAAAUGAACAAAGAAAAUCUGGGCCAGGCAGGCAUCAAAAGAAAUAGCCUUGCGCUCAACCAGAAAGUCUGUAAUCAUUUUAAGGGUA [A22U A52U U100C] | 2.96
14 | GUUAACGGUCAUAGGCCAUGGUAACUAGGAGCACCAUUUCGCUGCCGGUGAAGAAAUGAACAAAGAAAAUCUGGGCCAGGCAGGCAUCAAAAGGAAUAGUCUUGCGCUCAACCAGAAGGUCUGUAAUCAUUUUAAGGGUA [A22U A47G A94G A118G] | 0.55
15 | GUUAACGGUCAUAGGCCAUGGUAACUAGGAGCGCCAUUUCGCUGCCAGUGAAGAAAUGGACAAAGAAAAUCUGGGCCAAGCAGGCAUCAAAAGAAAUAGUCUUGCGCUCAACCAGAAAGUCUGUAAUCAUUUUAAGGGUA [A22U A33G A59G G79A] | 0.39
16 | GUUAACGGUCAUAGGCCAUGGUAACUAGGAGCACCAUUUCGCUGCCAGUGAGGAAAAGAACAAAGAAAAUCUGGGCCAGGCAGGCAUCAAAAGAAAUAGUCUUGCGCUCAACCAGAAAGUCUGUAAUCAUUUUAAGGGUA [A22U A52G U57A] | 0.74
17 | GUUAACGGUCAUAGGCCAUGGUAACUAGGAGCACCAUUUCGCUGCCAGUGAUGAAAUGAACAAAGAAAAUCUGGGCCAGGCAGGCAUCAAAAGAAAUGGUCUUGCGCUCAACCAGAAAGUCUGUAAUCAUUUUAAGGGUA [A22U A52U A98G] | 0.1
18 | GUUAACGGUCAUAGGCCAUGGGAACUAGGAGCACCAUUUCGCUGCCAGUGAAGAAAUGAACAAAGAAAAUCUGGGCCAGGCAGGCACCAAAAGAAAUAGUUUUGCGCUCAUCCAGAAAGUCUGUAAUCAUUUUAAGGGUA [A22G U87C C101U A111U] | 0.06
19 | GUUAACGGUCAUAGGCCAUGGGAACUAGGAGCACCAUUUCGCUGCCAGUGAAGAAAUGAACAAAGAAAAUCAGGGCCAGGCAGGCAUCAAAAGAAAUAGUCUUGCGCUCAACCAGAAAGUCUGUAAUCGUUUUAAGGGUA [A22G U72A A129G] | 0.1
20 | GUUAACGGUCAUAGGCCAUGGGAACUAGGAGCACCAUUUCGCUGCCAGUGAAGAAAUGAACAAAGAAAAUCAGGGCCAGGCAGGCAUCAAAAGAAAUAGUCUUGCGCUCAACCAGAAAGUCUGUAAUCAUUUUAGGGGUA [A22G U72A A135G] | 0.18
21 | GUUAACGGUCAUAGGCCAUGGUAACUAGGAGCACCGUUUCGCUGCCAGUGAAGAAAUGAACAAGGAAAAUCUGGGCCAGGCAGGCAUCAAAGGAAAUAGUCUUGCGCUCAACCAGAAAGUCUGUAAUCAUUUUAAGGGUA [A22U A36G A64G A92G] | 1.62

Row | Variant | self-cleavage
22 | GUUAACGGUCAUAGGCCAUGGUAACUAGGAGCACCAUUUCGCUGCCAGUGGAGAAAUGAACAAAGAAAAUCUGGGCCAGGCAGGCAUCAAAAGAAGUAGUCUUGCGCUCAACCAGAAAGUCUGUAAUCAUUUUAAGGGUA [A22U A51G A96G] | 2.03
23 | GUUAACGGUCAUAGGCCAUGGUAACUAGGGGCACCAUUUCGCUGCCAGUGAAGAAAUGAACAAAGAAAAUCUGGGCCAGGCAGGCAUCAAAAGGAAUAGUCUUGCGCUCAACCAGAAAGUCUGUAAUCAUUUUAAGGGUA [A22U A30G A94G] | 0.73
24 | GUUAACGGUCAUAGGCCAUGGGAACUAGGAGCACCAUUUCGCUGCCAGCGAAGAAAUGAACAAAGAGAAUCUGGGCCAGGCAGGCAUCAAAAGAAAUAGUCUUGCGCUCAACCAGAAAGUCUGUAAUCAUUUUAAGGGUA [A22G U49C A67G] | 0.57
25 | GUUAACGGUCAUAGGCCAUGGGAACUAGGAGCACCAUUUCGCUGCCAGUGAAGAAAUGAACAAAGAAAAUCUGGGCCAGGCAGGCAUCAAAAGAAAUAGCCUUGCGCUCUACCAGAAAGUCUGUAAUCAUUUUAAGGGUA [A22G U100C A110U] | 1.11
26 | GUUAACGGUCAUAGGCCAUGGUAACUAGGAGCACCAUUUCGCUGCCAGUGAAGAAAUGAGCAAAGAAAAUCUGGGCCAGGCAGGCAUCAAAAGAAAUAGUCUUGCGCUCGACCAGAAAGUCUGUAAUCAUUUUAAGGGUA [A22U A60G A110G] | 0.1
27 | GUUAACGGUCAUAGGCCAUGGGAACUAGGAGCACCAUUUCGCUGCCAGUGAAGAAAAGAACAAGGAAAAUCCGGGCCAGGCAGGCAUCAAAGGAAAUAGUCUAGCGCUCAACCAGAAAGUCUGUAAUCAUUUUAAGGGUA [A22G U57A A64G U72C A92G U103A] | 0.1
28 | GUUAACGGUCAUAGGCCAUGGUAACUAGGAGCACCCUUUCGCUGCCAGCGAAGAAAUGAACAAAGAAAAUCUGGGCCAGGCAGGCAUCAAGAGAAAUAGUCUCGCGCUCAACCAGAAAGUCUGUAAUCAUUUUAAGGGUA [A22U A36C U49C A91G U103C] | 0.86
29 | GUUAACGGUCAUAGGCCAUGGGAACUAGGAGCACCAUUUCGCUGCCAGUGAAGAAACGAACAAAGAAAAUCUGGGCCAGGCAGGCAUCAAAAGAAAUAGUCUUGCGCCCAACCAGAAAGUCUGUUAUCAUUUUAAGGGUA [A22G U57C U108C A125U] | 0.04
30 | GUUAACGGUCAUAGGCCAUGGGAACUAGGAGCACCAUUUCGCUGCCAGUGAAGAAAUGAACAAAGAAAAUCUGGGCCAGGCAGGCAUCAAAAGAAAUAGACUUGCGCUCAGCCAGAAAGUCUGUAAUCAUUUUAAGGGUA [A22G U100A A111G] | 0.03
31 | GUUAACGGUCAUAGGCCAUGGGAACUAGGAGCACCAUUUCGCUGCCAGUGAAGAAAUGAACAAAGAAAAUCUGGGCCAGGCAGGCAUCAAAAGAAAUAGUCUUGCGCUCAACCAGAAAGUCUGAAAUCAUCUUAAGGGUA [A22G U124A U131C] | 1.05
32 | GUUAACGGUCAUAGGCCAUGGGAACUAGGAGCACCAUUUCGCUGCCAGUGAAGAAAUGAACAAAGAAAAUCUGGGCCAGGCAGGCAUCAAAAGAAAUAGUCUUGCGCUCAACCAGAAAGUCUGUAAUCAUCUUAAGGGUG [A22G U131C A140G] | 1.12
33 | GUUAACGGUCAUAGGCCAUGGUAGCUAGGAGCACCAUUUCGCUGCCAGUGAAGAAAUGAACAAAGAAAAUCUGGGCCAGGCAGGCAUCAAAAGAAGUAGUCUUGCGCUCAGCCAGAAAGUCUGUAAUCAUUUUAAGGGUA [A22U A24G A96G A111G] | 0.02
34 | GUUAACGGUCAUAGGCCAUGGUAACUGGGAGCACCAUCUCGCUGCCAGUGAAGAAAUGAACUAAGAAAAUCUGGGCCAGGCAGGCAUCAAAAGAAAUAGUCUUGCGCUCAACCAGAAAGUCCGUGAUCAUUUUAAGGGUA [A22U A27G U38C A62U U122C A125G] | 0.21
35 | GUUAACGGUCAUAGGCCAUGGGAACUAGGAGCACCAUUUCGCUGCCAGUGAAGAAACGAACAAAGAAAAUCUGGGCCAGGCAGGCAUCAAAAGAAAUAGUCUUGCGCUCGACCAGAAAGUCUGAAAUCAUUUUAAGGGUA [A22G U57C A110G U124A] | 0.03
36 | GUUAACGGUCAUAGGCCAUGGGAACUAGGAGCACCAUUUCGCUGCCAGUGAAGAAAUGAACAAAGAAAAUCUGGGCCAGGCAGGCAACAAAAGAAAUAGUCUUGCGCUCAACCAGAAAGUCUGUAGUCGUUUUAAGGGUA [A22G U87A A126G A129G] | 0.42
37 | GUUAACGGUCAUAGGCCAUGGGAACUAGGAGCACCAUUUCGCUGCCAGUGAAGAAAAGAACAAAGAAAAUCUGGGCCAGGCAGGCAUCAAGAGAAAUAGUCUUGCGCUCAACCAGAAAGUCUGUAAUCAUUUUAAGGGUG [A22G U57A A91G A140G] | 0.78
38 | GUUAACGGUCAUAGGCCAUGGGAACUAGGAGCACCAUUUCGCUGCCAGUGAAGAAAUGAACAAAGAAAAUCAGGGCCAGGCAGGCAUCAAAAGAAAUAGUCUUGCGCUCAACCAGAAAGUCUGUAACCAUUUUAAGGGUA [A22G U72A U127C] | 0.06
39 | GUUAACGGUCAUAGGCCAUGGUUACUAGGAGCACCAUUUCGCUGCCAGUGAAGAAAUGAACAAAGAAAAUCUGGGCCAGGCAGGCAUCAGAAGAAAUAGUCUUGCGCUCAACCAGAAAGUCUGUAAUCAUUUUAAGGGUA [A22U A23U A90G] | 0.96
40 | GUUAACGGUCAUAGGCCAUGGGAACUAGGAGCACCAUUUCGCUGCCAGUGAAGAAAUGAACAAAGAAAAUCCGGGCCAGGCAGGCACCAAAAGAAAUAGUCUUGCGCUCUACCAGAAGGUCUGUAAUUAUUUUAAGGGUG [A22G U72C U87C A110U A118G C128U A140G] | 0.03
41 | GUUAACGGUCAUAGGCCAUGGGAACUAGGAGCACCAUUUCGCUGCCAGUGAAGAAAUGAACAAAGAAAACCUGGGCCAGGCAGGCAUCAAAAGAAAUAGUCUUGCGCUCAACCAGAACGUCCGUAAUCAUUUUAAGGGUA [A22G U70C A118C U122C] | 0.1
